Experimental data: the supplement of paper PMC8728848
Some of the results follow.

Columns and labels:
Test in all cases: glycan array binding signal (z-score within array); higher = stronger binding
Conditions in all cases: glycan notation: IUPAC condensed, linker removed
[1] = molecular target: Gal6S(b1-4)Glc6S
In short: (§1)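 The Consortium for Functional Glycomics database supplied 3228 glycan arrays, of which those lacking an available protein sequence were dropped. The binding signal, a within-array Z-score, was averaged across arrays of the same protein sequence and across linkers. Negative scores can be read as non-binding.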

[2] = molecular target: Gal6S(b1-4)GlcNAc
In short: as §1

[3] = molecular target: Gal6S(b1-4)GlcNAc6S
In short: as §1

[4] = molecular target: GalNAc(a1-3)Gal
In short: as §1

[5] = molecular target: GalNAc(a1-3)GalNAc
In short: as §1

[6] = molecular target: GalNAc(a1-3)GalNAc(b1-3)Gal(a1-4)Gal(b1-4)Glc
In short: as §1

[7] = molecular target: GalNAc(a1-3)GalNAc(b1-3)Gal(a1-4)Gal(b1-4)GlcNAc
In short: as §1

[8] = molecular target: GalNAc(b1-3)Gal
In short: as §1

[9] = molecular target: GalNAc(b1-3)Gal(a1-4)Gal(b1-4)GlcNAc
In short: as §1

[10] = molecular target: GalNAc(b1-3)Gal(a1-4)Gal(b1-4)GlcNAc(b1-3)Gal(b1-4)Glc
In short: as §1

[11] = molecular target: GalNAc(b1-3)Gal(a1-6)Gal(b1-4)Glc
In short: as §1

[12] = molecular target: GalNAc(b1-3)GalNAc
In short: as §1

[13] = molecular target: GalNAc(b1-3)GlcNAc
In short: as §1

[14] = molecular target: GalNAc(b1-4)Gal(b1-4)Glc
In short: as §1

[15] = molecular target: GalNAc(b1-4)GlcNAc
In short: as §1

[16] = molecular target: GalNAc(b1-4)GlcNAc(b1-2)Man
In short: as §1

[17] = molecular target: GalNAc(b1-4)GlcNAc(b1-2)Man(a1-3)[GalNAc(b1-4)GlcNAc(b1-2)Man(a1-6)]Man(b1-4)GlcNAc(b1-4)GlcNAc
In short: as §1

[18] = molecular target: GalNAc(b1-4)GlcNAc(b1-3)GalNAc(b1-4)GlcNAc
In short: as §1

[19] = molecular target: GalNAc(b1-4)GlcNAc6S
In short: as §1

[20] = molecular target: GalNAc(b1-6)GalNAc
In short: as §1

[21] = molecular target: GalNAc3S(b1-4)GlcNAc
In short: as §1

[22] = molecular target: GalNAc3S(b1-4)GlcNAc3S
In short: as §1

[23] = molecular target: GalNAc3S(b1-4)[Fuc(a1-3)]GlcNAc
In short: as §1

[24] = molecular target: GalNAc4S6S(b1-4)GlcNAc
In short: as §1

[25] = molecular target: GalNAc6S(b1-4)GlcNAc
In short: as §1

[26] = molecular target: Glc(a1-4)Glc
In short: as §1

[27] = molecular target: Glc(a1-4)Glc(a1-4)Glc(a1-4)Glc
In short: as §1

[28] = molecular target: Glc(a1-6)Glc(a1-6)Glc
In short: as §1

[29] = molecular target: Glc(a1-6)Glc(a1-6)Glc(a1-6)Glc
In short: as §1

[30] = molecular target: Glc(b1-4)Glc
In short: as §1

[31] = molecular target: Glc(b1-6)Glc
In short: as §1

[32] = molecular target: GlcA(b1-3)Gal
In short: as §1

[33] = molecular target: GlcA(b1-3)GlcNAc
In short: as §1

[34] = molecular target: GlcA(b1-6)Gal
In short: as §1

[35] = molecular target: GlcA3S(b1-3)Gal(b1-4)GlcNAc(b1-2)Man
In short: as §1

[36] = molecular target: GlcA3S(b1-3)Gal(b1-4)GlcNAc(b1-3)Gal(b1-4)Glc
In short: as §1

[37] = molecular target: GlcNAc(a1-3)Gal(b1-4)GlcNAc
In short: as §1

[38] = molecular target: GlcNAc(a1-4)Gal(b1-3)GlcNAc
In short: as §1

[39] = molecular target: GlcNAc(a1-4)Gal(b1-4)GalNAc
In short: as §1

[40] = molecular target: GlcNAc(a1-4)Gal(b1-4)GlcNAc
In short: as §1

[41] = molecular target: GlcNAc(a1-4)Gal(b1-4)GlcNAc(b1-3)Gal(b1-4)Glc
In short: as §1

[42] = molecular target: GlcNAc(a1-4)Gal(b1-4)GlcNAc(b1-3)Gal(b1-4)GlcNAc
In short: as §1

[43] = molecular target: GlcNAc(a1-4)Gal(b1-4)GlcNAc(b1-3)Gal(b1-4)GlcNAc(b1-3)Gal(b1-4)GlcNAc
In short: as §1

[44] = molecular target: GlcNAc(a1-4)Gal(b1-4)GlcNAc(b1-3)Gal(b1-4)[Fuc(a1-3)]GlcNAc(b1-3)Gal(b1-4)[Fuc(a1-3)]GlcNAc
In short: as §1

[45] = molecular target: GlcNAc(a1-6)Gal(b1-4)GlcNAc
In short: as §1

B1: rCnSL-proA (Clitocybe nebularis) (protein)
chain: AAFFSLVVLLALLPFGIHASALPSTELTPRVNPNLPGPNDVFVGFRGTNNIVGAIYEKDGIKDTPLNNGADAEMGPGSYITDGLFTARIFASGSAGNNPGTTATVCKIYASGVQWRGAPKGYIPVAYFGNGPTAEQRRQTYLRTLGLPGTAIRFGNLNTNPGQGPTAPRQMVVPPGPLRSLLKASCFPAADTRLPQTLHYFEKRVDWNIITAADSQTWGH
glycan array binding signal (z-score) [1]: -0.504 | glycan array binding signal (z-score) [2]: -0.713 | glycan array binding signal (z-score) [3]: -0.45 | glycan array binding signal (z-score) [4]: -0.243 | glycan array binding signal (z-score) [5]: -0.629 | glycan array binding signal (z-score) [6]: -0.574 | glycan array binding signal (z-score) [7]: -0.007 | glycan array binding signal (z-score) [8]: -0.048 | glycan array binding signal (z-score) [9]: 0.014 | glycan array binding signal (z-score) [10]: -0.096 | glycan array binding signal (z-score) [11]: 0.329 | glycan array binding signal (z-score) [12]: -0.444 | glycan array binding signal (z-score) [13]: -0.496 | glycan array binding signal (z-score) [14]: 0.571 | glycan array binding signal (z-score) [15]: -0.02 | glycan array binding signal (z-score) [16]: 0.038 | glycan array binding signal (z-score) [17]: 3.42 | glycan array binding signal (z-score) [18]: -0.063 | glycan array binding signal (z-score) [19]: -0.073 | glycan array binding signal (z-score) [20]: -0.268 | glycan array binding signal (z-score) [21]: -0.34 | glycan array binding signal (z-score) [22]: -0.693 | glycan array binding signal (z-score) [23]: -0.664 | glycan array binding signal (z-score) [24]: -0.579 | glycan array binding signal (z-score) [25]: -0.26 | glycan array binding signal (z-score) [26]: 0.03 | glycan array binding signal (z-score) [27]: 0.086 | glycan array binding signal (z-score) [28]: 0.061 | glycan array binding signal (z-score) [29]: -0.23 | glycan array binding signal (z-score) [30]: 0.068 | glycan array binding signal (z-score) [31]: -0.146 | glycan array binding signal (z-score) [32]: -0.93 | glycan array binding signal (z-score) [33]: 0.021 | glycan array binding signal (z-score) [34]: 1.19 | glycan array binding signal (z-score) [35]: -0.614 | glycan array binding signal (z-score) [36]: -0.793 | glycan array binding signal (z-score) [37]: -0.305 | glycan array binding signal (z-score) [38]: -0.192 | glycan array binding signal (z-score) [39]: -0.786 | glycan array binding signal (z-score) [40]: -0.729 | glycan array binding signal (z-score) [41]: -1.11 | glycan array binding signal (z-score) [42]: -0.381 | glycan array binding signal (z-score) [43]: -0.522 | glycan array binding signal (z-score) [44]: 0.091 | glycan array binding signal (z-score) [45]: 0.294
